Assay results: PMC4336329 (PLoS ONE, 2015)
In all, about 310,000 compounds went through this assay and about 2,200 (0.71%) showed an effect of 50% or more. The effect is printed as a negative number. Some of the results follow.

Target: human ether-à-go-go-related gene (hERG) potassium channel (human, UniProt Q12809)
Experiment: primary screen, population patch clamp on CHO cells stably expressing hERG

human ether-à-go-go-related gene (hERG) potassium channel, sequence (Q12809 whole entry, looked up): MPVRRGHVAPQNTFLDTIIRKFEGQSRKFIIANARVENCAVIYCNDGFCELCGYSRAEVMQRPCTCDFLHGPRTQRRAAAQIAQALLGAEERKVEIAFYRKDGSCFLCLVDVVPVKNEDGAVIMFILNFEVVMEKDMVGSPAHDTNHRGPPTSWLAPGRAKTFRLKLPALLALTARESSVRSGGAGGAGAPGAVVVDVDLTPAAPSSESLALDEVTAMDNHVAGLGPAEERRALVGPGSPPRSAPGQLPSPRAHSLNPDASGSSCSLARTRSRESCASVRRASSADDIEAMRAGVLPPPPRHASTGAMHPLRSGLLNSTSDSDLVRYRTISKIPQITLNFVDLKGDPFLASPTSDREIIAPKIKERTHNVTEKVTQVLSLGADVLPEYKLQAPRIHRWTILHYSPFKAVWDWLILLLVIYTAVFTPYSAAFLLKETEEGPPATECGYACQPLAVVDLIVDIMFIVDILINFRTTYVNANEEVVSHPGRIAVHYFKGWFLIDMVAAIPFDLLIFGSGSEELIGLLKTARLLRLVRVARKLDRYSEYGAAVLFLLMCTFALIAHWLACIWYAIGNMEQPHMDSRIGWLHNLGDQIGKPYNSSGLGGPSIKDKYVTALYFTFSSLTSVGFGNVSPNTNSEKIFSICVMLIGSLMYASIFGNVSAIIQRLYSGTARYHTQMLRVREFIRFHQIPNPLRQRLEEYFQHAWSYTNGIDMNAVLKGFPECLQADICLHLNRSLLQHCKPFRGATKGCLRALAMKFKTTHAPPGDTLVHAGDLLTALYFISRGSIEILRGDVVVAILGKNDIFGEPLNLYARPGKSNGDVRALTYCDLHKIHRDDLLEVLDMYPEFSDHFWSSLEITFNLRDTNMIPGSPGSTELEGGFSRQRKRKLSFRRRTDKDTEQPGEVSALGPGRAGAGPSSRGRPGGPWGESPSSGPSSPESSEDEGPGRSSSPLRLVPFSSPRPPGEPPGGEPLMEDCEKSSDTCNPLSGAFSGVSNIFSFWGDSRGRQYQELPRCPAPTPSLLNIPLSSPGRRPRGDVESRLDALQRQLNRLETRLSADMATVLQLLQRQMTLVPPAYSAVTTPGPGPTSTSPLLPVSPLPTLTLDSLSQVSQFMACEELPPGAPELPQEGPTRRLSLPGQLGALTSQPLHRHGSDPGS

Compound	hERG current change (%, negative = inhibition) at 1uM [%]
S=C1Nc2cc(Cl)ccc2Sc2ccccc21	13.7
O=C(Nc1cccc(OC(=O)N2CCOCC2)c1)N1CCOCC1	20.2
Fc1ccc(CSc2nncn2NC/C=C/c2ccccc2)cc1	8.25
CC1=CC(C)(C)N(S(=O)(=O)c2ccc(F)cc2)c2ccc(C)cc21	0.634
NC(=O)c1ccc2c(c1)S(=O)(=O)c1ccccc1C2=O	17.9
CC(=O)n1cc([C@H]2C=C(C(=O)N3CCOCC3)O[C@@H](OCc3ccc(CO)cc3)C2)c2ccccc21	-4.69
Cc1ccc(NC(=O)C(C)Oc2ccccc2)cc1S(=O)(=O)N1CCCCCC1 (stereo not shown)	9.52
FCCCOc1ccc(CN2CCN(c3ccccc3F)CC2)cc1	-7.45
CCOC(=O)CSc1ccc(-c2nc3cc(C)c(C)cc3[nH]2)cn1	21.5
O=C(NNC(=O)c1ccc(Br)s1)c1ccc(F)c(S(=O)(=O)N2CCOCC2)c1	0.537
O=C1C(=O)N(CCCN2CCOCC2)C(c2ccc(Cl)cc2)/C1=C(\O)c1ccc2c(c1)OCCO2 (stereo not shown)	10.2
COc1ccccc1CNS(=O)(=O)c1cc(-c2cc(C)no2)ccc1C(C)C	11.8
CC(=O)c1nnn(-c2nc(N)nc(N(c3ccccc3)c3ccccc3)n2)c1C	6.79
C#CCn1c(C)cc(C)c(S(=O)(=O)c2ccccc2)c1=O	9.06
O=C(CN(Cc1ccco1)C(=O)c1ccc(F)cc1F)Nc1ccccc1C(F)(F)F	3.35
O=C(Nc1ccccc1)n1cc(-c2ccccn2)c(N2CCOCC2)n1	8.12
COc1cccc(C(=O)NC2CC(C)(C)NC(C)(C)C2)c1OC	5.4
Cn1nc(C(=O)OCC(=O)Nc2ccccc2[N+](=O)[O-])c2ccccc2c1=O	0.155
Cc1cc(NC(=O)CCCn2cc([N+](=O)[O-])cn2)n(Cc2ccc(F)cc2)n1	5.14
CC1CCN(C(=O)C2CCN(S(=O)(=O)c3cccc4nsnc34)CC2)CC1	3.13
Cc1ccc(S(=O)(=O)NCC(=O)NCCc2c[nH]c3ccccc23)cc1C	7.54
O=C(CCNC(=O)c1ccc(Cl)cc1)NC1CCCCCC1	-8.08

Compound	hERG current change (%, negative = inhibition) at 1uM [%]
CCOC(=O)C1CCCN(CC(=O)Nc2nccs2)C1 (stereo not shown)	4.09
NC(=O)CSc1nc2cccnc2n1-c1ccc(F)cc1	12.2
CC1Cc2ccccc2N1C(=O)CSc1nnc2sc3ccccc3n12 (stereo not shown)	11.9
Cc1c([N+](=O)[O-])c(C(=O)N2CCCC2)nn1C	3.86
COc1ccc(N(C(C)C(=O)NCCSCc2cccc(Cl)c2)S(C)(=O)=O)cc1 (stereo not shown)	7.92
CN(CCOc1ccccc1)C(=O)c1ccc(Cl)c(S(=O)(=O)N2CCCCC2)c1	-15.9
Cc1cccc2c(=O)cc(C)n(CC(=O)N3CCCCC3)c12	9.18
COc1cccc(C(=O)N2CCC(N3CC(C)OC(C)C3)CC2)c1.O=C(O)C(=O)O (stereo not shown)	12.9
O=C(Nc1ccc(F)cc1)N1CCCN(c2ccc(C(F)(F)F)cn2)CC1	-2.54
CN1CCN(C(=O)c2cc3nc(-c4ccccc4)cc(-c4ccccc4)n3n2)CC1	0.764
O=c1c(OC2OC(CO)C(O)C(O)C2O)c(-c2ccc(O)c(O)c2)oc2cc(O)cc(O)c12 (stereo not shown)	19.6
COc1ccc(N2CCN(Cc3cc(=O)c(OCC(=O)Nc4ccccc4)co3)CC2)cc1	6.56
N#C/C(=N\Nc1ccc(S(=O)(=O)N2CCc3ccccc32)cc1)C(N)=S	17.6
Cc1c(O)c(=O)c2ccccc2n1C	16
COC(=O)C1=C(Nc2ccc(C)cc2)C=C(C)C(C(=O)OC)C1c1ccc(F)cc1 (stereo not shown)	12.6
Cc1ccc(-c2nnc(-c3ccc(NC(=O)c4cccs4)cc3)o2)cc1	4.62
Cc1ccc(CNC(=O)C2CC(=O)N(C3CCCC3)C2)cc1 (stereo not shown)	8.91
CC(C)C(=O)Nc1ccc(N2CCN(C(=O)c3cccs3)CC2)cc1	3.3
COc1ccc(C(=O)NNC2CC(=O)N(Cc3ccc(Cl)cc3)C2=O)cc1OC (stereo not shown)	9.19
COc1ccc2nc(NC(=O)CN3CCN(C)CC3)sc2c1.Cl	-3.94
COc1cc(CNC2CCC(C)C2)cc(OC)c1 (stereo not shown)	12.3
Cc1ccc2cc3cc(C(=O)NCCC(C)C)oc3nc2c1	10.1

Compound	hERG current change (%, negative = inhibition) at 1uM [%]
COc1ccc(C(C)NS(=O)(=O)Cc2ccccc2)cc1 (stereo not shown)	12.9
CC(C)C[C@@H](CO)N1CCN(C)CCC1=O	1.94
CN(C)CCCNS(=O)(=O)c1cc(Cl)ccc1Cl	14.2
CC(C)(C)NC(=O)CN(Cc1ccco1)C(=O)CCC(=O)Nc1nccs1	12.2
CN(C)c1ccc(NC(=S)N2CCN(c3ncc(C(F)(F)F)cc3Cl)CC2)cc1	11.4
O=C(CCCN1C(=O)c2ccccc2C1=O)Nc1cccnc1	2.91
C=CC[n+]1ccc2ccccc2c1C.[Cl-]	15.7
COc1ccc(N2CCN(C(CNC(=O)C(C)(C)C)c3cccnc3)CC2)cc1 (stereo not shown)	-16
CCOc1ccc(NC(=O)NNC(=O)c2ccc3ccccc3c2O)cc1	9.28
Cn1c(=O)c(=O)n(C)c2cc(S(=O)(=O)NCCN3CCN(c4ccccc4F)CC3)ccc21	13
COc1cc(CCC(=O)Nc2ccc(Br)c(C(F)(F)F)c2)cc(OC)c1OC	10.8
CCN(CC(=O)NCc1cccs1)C(=O)c1ccc(S(=O)(=O)Nc2cccc(C)c2C)cc1	-12.6
Cc1ccc(NC(=O)c2cc(C)n(-c3cccc(C)c3)c2C)cc1	9.98
COc1ccc(S(=O)(=O)n2cnc3ccccc32)c(C)c1	13.1
COc1ccccc1C(=O)NC(=O)Nc1nc(-c2ccccc2)cc(C(F)(F)F)n1	12.8
O=C(CSc1nnc(Nc2ccccc2F)s1)NC1CC1	9.4
COc1c2ccccc2nc2ccccc12	12.9
COc1cc(OC)cc(-c2nnc(NC(=O)CCS(=O)(=O)c3ccccc3)o2)c1	-14.8
CCOC(=O)c1ccc(N(C(=O)CNC(=O)c2ccco2)C(C(=O)NCC2CCCO2)c2ccc(OC)c(OC)c2)cc1 (stereo not shown)	13.8
O=C(NC(=S)Nc1ccc2oc(=O)ccc2c1)c1ccc(-c2cccc(Cl)c2Cl)o1	3.73
COc1ccc(S(=O)(=O)Nc2ccccn2)cc1	14.5
O=Cc1ccc(-c2cccc(C(=O)O)c2)o1	15.7

Compound	hERG current change (%, negative = inhibition) at 1uM [%]
COc1ccc(CCN(C)CC(=O)Nc2c(C)cc(C)cc2C)cc1OC.Cl	14.4
Cc1nnc(NC(=O)c2ccccc2Br)s1	8.45
COc1ccc(Cc2nnc(SCC(=O)N(C)c3ccccc3)o2)cc1	11.6
O=C(CCCC(=O)NCCc1ccccc1)NCCc1ccccc1	12.1
NCCNC(=O)c1c(NC(=O)c2ccccc2)sc2c1CCCC2	10.9
CCOc1ccc(C2c3[nH]c4ccccc4c3CCN2CCCn2cccn2)cc1 (stereo not shown)	-25.7
COC(=O)C1C(=O)c2c([nH]c(C(=O)OCC3CCCO3)c2C)CC1C (stereo not shown)	8.21
CCN(CC)c1ccc(NC(=O)CCNS(=O)(=O)c2ccc3c(c2)CCC(=O)N3)c(C)c1	11.8
COc1cc(CNCCO)ccc1OCC(=O)Nc1ccc(Br)cc1	-5.48
O=C(c1ccccc1)c1nc2ccccc2n(CCCn2c(=O)c(C(=O)c3ccccc3)nc3ccccc32)c1=O	-12.4
Cc1ccc(CNS(=O)(=O)c2cn(C)c(=O)n(C)c2=O)cc1	-1.66
CC1(C(=O)N(Cc2ccccc2)Cc2ccccc2)CC1(Br)Br (stereo not shown)	6.77
c1ccc(CNc2nc(-c3cccnc3)cs2)cc1	-5.72
OCCC1CN(Cc2nc3ccccc3[nH]2)CCN1C1CCCC1 (stereo not shown)	13.8
Cn1nnnc1SCC(=O)Nc1ccc(Cl)c(S(=O)(=O)N2CCOCC2)c1	8.74
Cc1ccc(C)c2[nH]c(=O)c(CCNC(=O)CCc3ccccc3)cc12	11.9
Cc1nc(N)nc(C)c1Cc1ccccc1	9.3
Cc1ccccc1Cn1cnc2ccccc2c1=O	-3.15
CN1CCN(c2ccc(NC(=O)c3ccc(Br)o3)cc2)CC1	16.2
NNc1nc2cccnc2n(CCNc2ncc(C(F)(F)F)cc2Cl)c1=O	14.2
CCOC(=O)C(NCc1ccccn1)(NC(=O)c1cccnc1)C(F)(F)F (stereo not shown)	1.35
COc1cccc(C2C(C#N)=C(N)OC3=C2C(=O)CCC3)c1OC(=O)c1ccco1 (stereo not shown)	6.66
